Laboratory results taken from PubChem BioAssay AID360 (National Center for Advancing Translational Sciences (NCATS), 2006).
About 550 (1.1%) of roughly 48,000 compounds were called active. Inconclusive results (about 4%) are left out. Rule as the data show it: active = potency below about 15 µM; inconclusive = mostly about 16 µM to 33 µM; inactive = weaker than that. This is one part of the list.

What follows are compounds tested against Lysosomal acid glucosylceramidase (Homo sapiens) (UniProt P04062) (assay: Glucocerebrosidase). Conditions: purified enzyme, resorufin glucoside fluorescence (screen aimed at inhibitors), 20 min; series mostly up to 77 µM.
Chain of UniProt P04062 (P04062 whole entry, looked up): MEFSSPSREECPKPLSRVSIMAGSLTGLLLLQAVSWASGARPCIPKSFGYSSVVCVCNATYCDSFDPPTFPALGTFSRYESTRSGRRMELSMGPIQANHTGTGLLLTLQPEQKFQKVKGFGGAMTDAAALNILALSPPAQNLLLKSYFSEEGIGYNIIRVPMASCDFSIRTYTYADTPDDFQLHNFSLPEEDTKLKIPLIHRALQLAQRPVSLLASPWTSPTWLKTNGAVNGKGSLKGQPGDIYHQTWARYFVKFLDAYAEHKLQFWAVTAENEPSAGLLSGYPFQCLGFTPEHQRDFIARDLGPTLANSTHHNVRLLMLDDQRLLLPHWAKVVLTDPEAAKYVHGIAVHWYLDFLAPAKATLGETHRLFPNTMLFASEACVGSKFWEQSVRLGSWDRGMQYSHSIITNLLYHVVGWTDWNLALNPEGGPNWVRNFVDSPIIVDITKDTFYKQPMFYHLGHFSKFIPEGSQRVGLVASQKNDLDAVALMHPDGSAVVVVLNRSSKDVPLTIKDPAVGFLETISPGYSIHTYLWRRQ
Method in brief: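 Wild-type enzyme at 0.2 nM final in 50mM citric acid/KH2PO4, 10mM sodium taurocholate, 0.01% tween-20, pH 5.9, with resorufin beta-D-glucopyranoside at 30 uM final. Compounds titrated, 20 min at RT, red fluorescence read; AC50 from titration.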
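Also: the screen sought inhibitors.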
Potency is read from the fitted curve at half-maximal effect.

Potency, inactive:
Cn1c(Cc2ccccc2)nnc1SCC(=O)Nc1ccc2c(c1)OCO2 > 76.9 µM
Cc1ccccc1NC(=O)CSc1nc(N)c(C#N)cc1C#N > 76.9 µM
CN(C)S(=O)(=O)c1cccc(C(=O)OCC(=O)Nc2sccc2C(N)=O)c1 > 76.9 µM
CCOc1c(N2CCCCC2)c(=O)c1=O > 76.9 µM
CC(C)NC(=O)NC(=O)COc1cccc2c1OC(C)(C)C2 > 76.9 µM
CCOC(=O)N1CCN(C(=O)c2ccc3c(=O)n(CCc4ccccc4)c(=O)[nH]c3c2)CC1 > 76.9 µM
CC1(C(=O)NC2CCCCCCC2)CCC(=O)N1Cc1ccco1 (stereo not drawn) > 76.9 µM
CCCCS/C(=C(/C#N)C(N)=O)c1cc2c([nH]1)CCCC2 > 76.9 µM
CCC(=O)Nc1ccc(NC(=O)c2ccccn2)cn1 > 76.9 µM
CCN(CC)CCNC(=O)C1CCN(S(=O)(=O)N2CCCCC2)CC1 > 76.9 µM
Cc1ccc(NC(=O)c2ccc(OC(=O)c3ccco3)cc2)cc1 > 76.9 µM
Cc1csc(NC(=O)C2CCCN(S(=O)(=O)c3ccc(Br)s3)C2)n1 (stereo not drawn) > 76.9 µM
CCS(=O)(=O)NCCc1cc2cc(C)c(C)cc2[nH]c1=O > 76.9 µM
Oc1ccccc1-c1cc(-c2ccc3c(c2)OCCO3)n[nH]1 > 76.9 µM
C=CCN1C(=O)CS/C1=N/c1nccs1 > 76.9 µM
CCN(C(=O)COc1ncnc2ccc(Br)cc12)C1CCS(=O)(=O)C1 (stereo not drawn) > 76.9 µM
COc1ccc(S(=O)(=O)N2CCN(S(=O)(=O)c3ccc4c(c3)OCCO4)CC2)cc1C > 76.9 µM
CC1CCN(C(=O)CSc2nnc(CSc3ncccn3)n2C)CC1 > 76.9 µM
CCC(=O)Nc1ccc(C(=O)CSc2nnc(CNc3ccc(Cl)cc3)o2)cc1OC > 76.9 µM
COc1cccc(C2=NO[C@@H]3C(=O)N(Cc4ccccc4)C(=O)[C@H]23)c1OC > 76.9 µM
Cc1cc(-n2c(C)cc(C(=O)CSc3nnnn3-c3ccc(Cl)cc3)c2C)no1 > 76.9 µM
CCOc1ccc(N2CC(=O)Nc3ccccc3NCC2=O)cc1 > 76.9 µM
Cc1ccc(N(CC(=O)Nc2ccc(F)c(Cl)c2)S(=O)(=O)c2c(C)noc2C)cc1
CN1CCN(C(=O)c2ccc(S(=O)(=O)c3ccc(Br)cc3)cc2)CC1 > 76.9 µM
C=CCOc1c(CNc2nccs2)cccc1OCC > 76.9 µM
CC1=C(C(=O)Nc2ccccc2)C(c2ccncc2)C(C#N)=C(SCC(=O)NC2CC2)N1 (stereo not drawn) > 76.9 µM
CS(=O)(=O)N(CC(=O)NCc1ccccn1)Cc1ccc(Cl)cc1 > 76.9 µM
NC(=O)CSc1ccc(Br)cc1 > 76.9 µM
CCN(CC)C(=O)CSc1nnc(-c2ccccn2)n1-c1ccc(C)c(C)c1 > 76.9 µM
CCOC(=O)c1c(C)nc2cc(C)ccn12 > 76.9 µM
COc1ccc(-c2nc(-c3ccccc3)no2)c(OC)c1 > 76.9 µM
CNC(=O)CN(C)S(=O)(=O)c1ccc(OC)c(Cl)c1 > 76.9 µM
COC(=O)c1cccc(NC(=O)c2nn(C)c(=O)c3ccccc23)c1 > 76.9 µM
CCN(c1ccccc1)S(=O)(=O)c1cccc(C(=O)O)c1 > 76.9 µM
N#Cc1nc(-c2ccco2)oc1NCc1ccc(F)cc1 > 76.9 µM
COc1ccc(C(OC(=O)c2ccco2)C(=O)NCc2ccco2)cc1 (stereo not drawn) > 76.9 µM
COc1ccc(CCNC(=O)CCn2c(=O)[nH]c3cc(OC)c(OC)cc3c2=O)cc1OC > 76.9 µM
COc1ccc(OC)c(-n2nnnc2SCC(=O)Nc2ccc3c(c2)OCCO3)c1 > 76.9 µM
CSc1nc(NCc2ccco2)c2c3c(sc2n1)CN(C)CC3 > 76.9 µM
COc1ccc(C(=O)N(CN2CCCC2=O)c2ccc(C)cc2)cc1 > 76.9 µM
Cc1ccc(-c2nc3ccccc3o2)cc1NC(=O)c1ccc2c(c1)OCO2 > 76.9 µM
COC(=O)C1=C(NC(=O)c2cccc(C)c2)CCS1 > 76.9 µM
CCC(=O)c1cn(CC(=O)NCC2CCCO2)c2ccccc12 (stereo not drawn) > 76.9 µM
CN(C)c1nc(OCC(=O)NC(C)(C)C)nc(N(C)C)n1 > 76.9 µM
Cc1ccc(Cn2ncc3c(N4CCN(c5ccccc5C)CC4)ncnc32)cc1 > 76.9 µM
O=C(NCC1COc2ccccc2O1)c1ccccc1 (stereo not drawn) > 76.9 µM
CCc1c(C)nc2ncnn2c1N1CCC(C(=O)Nc2ccc(C)cc2)CC1 > 76.9 µM
O=C1CC(c2ccc(F)cc2)Cc2nc(N3CCN(c4ccccc4)CC3)ncc21 (stereo not drawn) > 76.9 µM
COc1cc(OC)cc(C(C(=O)NCc2ccccc2)N(Cc2ccco2)C(=O)c2ccno2)c1 (stereo not drawn) > 76.9 µM
CN=C1c2ccccc2CN1c1cccc(C(=O)OC)c1 > 76.9 µM
CN(C)S(=O)(=O)c1cccc(C(=O)NCCc2ccccc2)c1 > 76.9 µM
COc1cccc(-c2nn(-c3ccccc3)cc2C(=O)O)c1 > 76.9 µM
Cc1ccc(C(=O)CSc2ncn[nH]2)cc1 > 76.9 µM
CC(=O)NCCn1ccc2ccccc21 > 76.9 µM
CCOc1ccc(-c2nc(CSc3nncs3)cs2)cc1OC > 76.9 µM
CN(C)S(=O)(=O)c1ccc(N2CCN(S(=O)(=O)c3ccc(F)cc3)CC2)c(Cl)c1 > 76.9 µM
COc1ccc(OC)c(S(=O)(=O)N(C)CC(=O)N2CCN(c3ccccc3)CC2)c1 > 76.9 µM
Cc1ccc(NC(=O)CSCc2c(C)noc2C)cc1C > 76.9 µM
